Binding signal data for 14 molecules are collected here from article PMC12136788.

Sequences and labels used below:
T1: UNK ZnF1-3 (human, UniProt Q9C0B0 31-174)
T1 sequence: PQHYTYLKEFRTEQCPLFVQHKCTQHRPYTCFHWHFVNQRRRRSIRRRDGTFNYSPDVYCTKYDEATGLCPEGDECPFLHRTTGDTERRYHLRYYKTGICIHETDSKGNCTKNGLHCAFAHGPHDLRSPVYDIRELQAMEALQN

B1: chr7:141438946:141438947:+_ENSG00000106028_ENST00000265304|hu_mus|hu_hu_hu_mus_True|38_108 (ssRNA)
RNA: GGGAGUUCUACAGUCCGACGAUCGACUACCUGUAAUUAACACAGGUCUUCGAAACAUGGCUUCUGUUUUUCUUACAACCUAAUCUUUAGGCUUUUCCUGACGAUCUGAAAGAAAAGAGAAAAAUGAUAAAUCAAGAAACUACACAACAGAGGAUUGAGCAUCA
B2: chr1:17371331:17371332:-_ENSG00000117118_ENST00000375499|hu_hu|FALSE|FALSE (ssRNA)
RNA: GGGAGUUCUACAGUCCGACGAUCAGUCUGCAUAUGAGGUUUGUCUCCAGCCUUGUCUGGGUCCCAUCGAUAGAUGGCAAAUUUCUUGAUACGGGGAGCUGUGGCUGCAGCUGUCUGGGCUCCUCGGGAGGCCUGCAGGCAGGCCAACAGAGGAUUGAGCAUCA
B3: chr13:51244491:51244492:+_ENSMUSG00000021395_ENSMUST00000095797|mus_mus|FALSE|FALSE (ssRNA)
RNA: GGGAGUUCUACAGUCCGACGAUCCAAAGUUUGUGAUGACAUCUAGGAUGUUUUCACCAAAUCGUAGACGUAAAUAUGGAAAUCGUCAUCAAACUUGAUGAAAUAGACAGAGGGCUUGGCCUCUACUUGGUGGAUGACCAUGCCCAACAGAGGAUUGAGCAUCA
B4: chr17:65740002:65740003:+_ENSG00000130935_ENST00000581375|hu_hu|hu_hu_hu_mus_False|18_78 (ssRNA)
RNA: GGGAGUUCUACAGUCCGACGAUCAACAAAUCUUUCUUCCCUGGACGAACAGGAAGACAUAAAAGAGAAAAAAUAUAUAUCCAUCAAGUUAGGUGUGGUGGCCACACCUUUACUCCCCACUUCAAUUGAGGUGGAUCUCUGAGUCAACAGAGGAUUGAGCAUCA
B5: chr2:47387770:47387771:-_ENSG00000143933_ENST00000272298|hu_mus|hu_hu_hu_mus_True|1_28 (ssRNA)
RNA: GGGAGUUCUACAGUCCGACGAUCAAGGUUUAAGGACAAUGACAGUAAGAUAAGGGAAGAAAACAUGGAGGAAUGAAGUCCUAAUUACUAUACAUGCAUAUUUUUUGGACAGUAGGGGGGGGAACCUUUUACAGAUAUUACAAACAACAGAGGAUUGAGCAUCA
B6: chr5:40767622:40767623:-_ENSG00000132356_ENST00000397128|hu_mus|hu_hu_hu_mus_False|58_108 (ssRNA)
RNA: GGGAGUUCUACAGUCCGACGAUCAUCUUUGAUUGUGGCCCUCUUCAUGGGAUCCACCUGCAGCAUAUGUUUCAAAAGGCUAAUCACUGAAGGGUUUAAGUACUGAGGGGUAUAAAAGAUCCCAUCACAUAUCUUCUUAAAAAGCAACAGAGGAUUGAGCAUCA
B7: chr1:163122374:163122375:-_ENSG00000143248_ENST00000313961|hu_mus|FALSE|FALSE (ssRNA)
RNA: GGGAGUUCUACAGUCCGACGAUCAGUGAAGUGGUCAAUGUUCACCUCUUUAGGGGCCUCUGUCUGGAUGAAUUCUUCAUAAAUUUGCUUUGCCUUCUCCGCCAUUUUGAUGGGGGACUUGAUCUUCUUGUAAUUCUCACAGGCCAACAGAGGAUUGAGCAUCA
B8: chr16:67133199:67133200:+_ENSG00000067955_ENST00000412916|hu_hu|FALSE|FALSE (ssRNA)
RNA: GGGAGUUCUACAGUCCGACGAUCAUGCUACUAAGUUUUUAGCCUGUAAAUAAUGCAAACAACAUCAGCAGUUUUAAAAUGCUAUAGACUAUAAAAACACAAAAGGAAAUGGGGCAAACAAAACAAAAAAUAAGAAUGCUCAUCCAACAGAGGAUUGAGCAUCA
B9: chr10:106027121:106027122:+_ENSG00000148834_ENST00000369713|hu_hu|FALSE|FALSE (ssRNA)
RNA: GGGAGUUCUACAGUCCGACGAUCGGCCUCAGGGCUGUUCUGUAAGUAGAGCUCUAGGAAACCUUGCCAGUCUUUCUCACUAGUAAGCAGGGCUGAGACUGUGGGAUCUUCCUUCAUGGCUGCCAUCCACAGUUUCAGUUUUGGCAACAGAGGAUUGAGCAUCA
B10: chr10:41618152:41618153:+_ENSMUSG00000038332_ENSMUST00000041438|mus_mus|FALSE|FALSE (ssRNA)
RNA: GGGAGUUCUACAGUCCGACGAUCUUGCAUCUCAUCCACACUGUGAUUGCCAUUUGUAAUGUCACAGAUGCAGUAGUUACUAACAGAAGGCGGUCUGAAGGUGUGGCCACCAUCGCAAUGAAUCUCUGGACUAAUUCCACAGCCCAACAGAGGAUUGAGCAUCA
B11: chr9:110092072:110092073:+_ENSG00000119318_ENST00000416373|hu_mus|FALSE|FALSE (ssRNA)
RNA: GGGAGUUCUACAGUCCGACGAUCAACUGUAUGUAUCCCUGCCCUAUAUCCUAGCUCCCCACCCCCACCCCCACCAACCUACUACCGUAUACCAAAUAUUGUGGAUAUGAGCCCAAGUCACCCCAGACAAUCCAGUGAACAAGGCAACAGAGGAUUGAGCAUCA
B12: chr2:47387770:47387771:-_ENSG00000143933_ENST00000272298|hu_mus|hu_hu_hu_mus_True|8_18 (ssRNA)
RNA: GGGAGUUCUACAGUCCGACGAUCAAGGUUUAAGGACAAUGACAGUAAGAUAAGGGAAGAAAACAUGGAGGAAUGAAGUCCUAAUUACUAUACAUGCAUAUUUUUUGACAGUAGGGGAGAAACCUUUUACAGAUAAGAGUUACACAACAGAGGAUUGAGCAUCA
B13: chr1:244855233:244855234:+_ENSG00000121644_ENST00000302550|hu_mus|hu_hu_hu_mus_True|38_38 (ssRNA)
RNA: GGGAGUUCUACAGUCCGACGAUCCAUCAGAUGGUAGGCGUUGCCCUUAUACUCUUUCCCCAGUUCUUCUACAAUUUUCUCUAUAUCAUCUUCUAGAAAGUCCGUGCUUCCUAGAACAACAGCUUCUUUAAAUUUAAAUGUUUCCAACAGAGGAUUGAGCAUCA
B14: 30729433_30729653_658_CDS_ENSG00000101337_ENST00000398022|human|control|control (ssRNA)
RNA: GGGAGUUCUACAGUCCGACGAUCCACAUCUUUUUCCUUCUUCUUGUCAUCGCUGUCUCGGUUGGAGUAGAGCUCCAGCCGGGUGGCCACAGGCAGGUUGUCAGCAAUGAGGUGGACGUAGUAGUCUUCUGUGAUCCGCUCGGCCAACAGAGGAUUGAGCAUCA

The list shows a part of the results.

In the assay the target is T1, UNK ZnF1-3. Kind of assay: nsRBNS (natural sequence RNA bind-n-seq); RBNS binding buffer (assumed for nsRBNS): 25 mM Tris pH 7.5, 150 mM KCl, 3 mM MgCl2, 0.01% Triton X-100, 500 ug/ml BSA, 20 U/ml SUPERase-In, 4 C; UNK is unkempt and MSI1 is Musashi-1; names of the RNAs are library labels; protein concentration not given here; high values mean tight binding.
B1: the binding signal came to 0.727 enrichment R. For B2, the binding signal came to 1.92 enrichment R. Under B3 stands 0.622 enrichment R; under B4, 0.753 enrichment R. Under B5 stands 2.35 enrichment R; under B6, 1.07 enrichment R; under B7, 0.927 enrichment R. On to B8, for which the binding signal was determined as 1.78 enrichment R. The value for B9 was 0.581 enrichment R; that for B10 was 0.845 enrichment R; that for B11 was 1.93 enrichment R.

Molecule B12 returned a binding signal of 1.83 enrichment R. Take B13: the binding signal was 1.23 enrichment R. For the molecule B14, the binding signal is 0.697 enrichment R.
